# Source: article PMC6919601, “Identification of Plasmodium dipeptidyl aminopeptidase allosteric inhibitors by high throughput screening” (PLoS ONE, 2019)
# Among all 110,000 compounds or so, about 230 (0.21%) showed an effect of 50% or more. The list shows a part of the results.
# Biological target: DPAP1 (Plasmodium falciparum, UniProt Q8IIJ9)
# Test: primary screen, percent inhibition; read by cleavage of a fluorogenic dipeptide substrate; higher = more effect of the substance
# Parameters: species or system P. falciparum D10 trophozoite lysates; single well
# 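Note: 30 min substrate incubation versus DMSO and 10 µM JCP410 controls.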
# Sequence of DPAP1 (Q8IIJ9 whole entry, looked up): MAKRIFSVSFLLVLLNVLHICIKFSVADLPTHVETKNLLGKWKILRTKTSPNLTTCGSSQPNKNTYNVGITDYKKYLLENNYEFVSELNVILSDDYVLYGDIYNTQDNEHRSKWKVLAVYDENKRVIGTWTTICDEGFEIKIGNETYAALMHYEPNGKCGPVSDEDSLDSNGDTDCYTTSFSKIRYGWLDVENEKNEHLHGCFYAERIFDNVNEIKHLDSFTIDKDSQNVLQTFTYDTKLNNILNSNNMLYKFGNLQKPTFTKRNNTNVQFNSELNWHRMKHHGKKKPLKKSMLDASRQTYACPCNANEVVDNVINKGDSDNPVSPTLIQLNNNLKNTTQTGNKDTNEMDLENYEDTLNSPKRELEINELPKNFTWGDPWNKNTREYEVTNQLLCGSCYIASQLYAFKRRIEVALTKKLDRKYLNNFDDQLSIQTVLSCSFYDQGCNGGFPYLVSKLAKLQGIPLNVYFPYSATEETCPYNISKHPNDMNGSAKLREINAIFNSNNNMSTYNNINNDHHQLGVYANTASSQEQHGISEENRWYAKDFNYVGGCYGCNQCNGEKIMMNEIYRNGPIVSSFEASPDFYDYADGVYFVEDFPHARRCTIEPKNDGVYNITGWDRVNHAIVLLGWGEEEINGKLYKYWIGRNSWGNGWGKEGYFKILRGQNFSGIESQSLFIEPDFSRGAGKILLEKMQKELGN
row,Structure (SMILES),% Inhibition @ 10 uM
1,COc1ccc(Cl)cc1C(=O)Nc1ccc2oc(-c3cccnc3)nc2c1,1.72%
2,NC1=NC2(CCCCC2)N(c2cccc(Cl)c2)C(N)=N1,0.634%
3,CCOc1ccc(C2CCC(=O)NC2=O)cc1 (stereo not drawn),1.24%
4,O=C(Cn1nc(-c2ccccc2)ccc1=O)NCCN1CCC(Cc2ccccc2)CC1,2.18%
5,CCc1cccc2c(C(=O)C(F)(F)F)cn(CC(=O)NCc3ccco3)c12,-4.77%
6,COc1ccc(OC)c(NC(=O)c2ccc(Br)cc2)c1,-1.52%
7,CCO/C(O)=C1\C(C)=Nc2nc(-c3cccs3)nn2C1c1ccc(C#N)cc1 (stereo not drawn),0.0598%
8,COC(=O)c1sc2cc(F)ccc2c1Cl,-0.294%
9,COCCNS(=O)(=O)c1ccc(OC)c(-c2nnc3c4ccccc4c(C)nn23)c1,-1.11%
10,COCCNC(=O)Cn1nc(C)n2c(cc3cc(F)ccc32)c1=O,0.0198%
11,Fc1cccc(Cl)c1CSc1nc2cccnc2[nH]1,2.97%
12,CC(C)CCn1c(SCCc2ccccc2)nc2c1c(=O)[nH]c(=O)n2C,-6.36%
13,COCc1[nH]nc2c1C1(CCSC1C)C(C#N)=C(N)O2 (stereo not drawn),-1.06%
14,c1ccc(CCN2CCC(NC3CCN(Cc4ccccc4)CC3)CC2)cc1,-5.44%
15,Cc1c(C)n(C)c2ccc(C(=O)NCCc3ccccc3Cl)cc12,2.77%
16,CCOC(=O)N1CCC(NCCc2ccc(F)cc2)CC1,-1.5%
17,Cc1ccc(CNC(=O)c2cc3c(=O)n4cccc(C)c4nc3n2C)cc1,4.46%
18,Nc1ccc2c(c1)Nc1ccccc1CC2,0.937%
19,COc1cccc(C2N3CC4(C)CN2CC(C)(C3)C4=O)c1O (stereo not drawn),2.1%
20,CCOC(=O)c1c(NC(=O)COc2ccc(Cl)cc2Cl)sc2c1CCC2,4.1%
21,Cc1ccnc(NC(=O)NCc2noc3ccccc23)c1,2.49%
22,O=C(c1ccccc1)N1CCN(C(=O)C23CC4CC(CC(C4)C2)C3)CC1,-4.06%
23,Clc1ccc(N2CCN(CC(c3ccccc3)c3ccccc3)CC2)cc1,3.44%
24,O=C(CCc1nc(-c2ccccc2F)no1)Nc1cccnc1,5.1%
25,Cc1ccccc1Cn1c(C(=O)O)c(CNCc2ccccc2Cl)c2ccccc21,5.62%
26,COc1ccc(NC(=O)C2CC(=O)N=C(Nc3ccc(C)c(C)c3)S2)cc1 (stereo not drawn),-4.01%

row,Structure (SMILES),% Inhibition @ 10 uM
1,CCO/C(O)=C1\C(C)=NC(=S)NC1c1cc(Br)c(O)c(OCC)c1 (stereo not drawn),-0.85%
2,COc1cc(C2CC(=O)NC(SCC(=O)Nc3nccs3)=C2C#N)cc(OC)c1OC (stereo not drawn),-3.21%
3,CCCN1CCC(NCCC(c2ccccc2)c2ccccc2)CC1,1.08%
4,O=C(O)/C=C(/c1ccccc1)C(F)(F)F,3.48%
5,CSc1cc(S(=O)(=O)C(C)(C)C)sc1S(=O)(=O)C(C)(C)C,2.62%
6,N#Cc1c(N)nc2c(c1-c1cccs1)CCCCC2,0.605%
7,CCC(C)NC(=O)C1CCN(c2nnc(C)c3c(C)n(-c4ccc(C)cc4)nc23)CC1 (stereo not drawn),9.79%
8,CC1CCCCN1C(=O)Cn1ncc2c3ccccc3n(Cc3ccccc3)c2c1=O (stereo not drawn),3.4%
9,COc1ccc(-c2cc(-c3ccc(OC)cc3)c(C#N)c(SCC(=O)c3ccccc3)n2)cc1,-2.47%
10,CC1=C(C(=O)Nc2cc(C)ccn2)C(c2cccc(Cl)c2)C2=C(O)CC(C)(C)CC2=N1 (stereo not drawn),2.76%
11,O=S(=O)(Nc1cc(C(F)(F)F)ccc1Cl)c1ccc(F)cc1,-7%
12,CCCSC1=C(C#N)C(c2ccccc2OC)CC(=O)N1 (stereo not drawn),-0.736%
13,CN(C)C(CNC(=S)NCc1ccccc1)c1cccnc1 (stereo not drawn),-2.29%
14,COc1ccc(C(=O)Nc2ccc(Cl)cc2C(=O)NCCN2CCOCC2)cc1,-12.7%
15,COCc1nc(-c2ccc(-c3ccc(Cl)cc3)nc2OC)no1,-1.33%
16,O=C(Nc1cccc(C(=O)Nc2ccccc2C(=O)O)c1)c1cccc(Cl)c1,-1.51%
17,Cc1ccc2c(C(=O)CSc3ccccc3)c(C)[nH]c2c1,-3.41%
18,O=C(c1ccc(CS(=O)(=O)Cc2ccc(Cl)cc2)o1)N1CCCCCC1,-3.12%
19,CCOC(=O)N1CCN(C(=O)c2cc3c(=O)oc4ccc(C)cc4c3s2)CC1,-1.54%
20,CC(C)(C)NC(=O)CN(c1ccccc1Cl)S(=O)(=O)c1ccccc1,1.1%
21,COC(=O)c1ccc(C2Oc3ccc(Br)cc3C3CC(c4ccco4)=NN32)cc1 (stereo not drawn),-1.11%
22,CCC1CCCCN1CCCNC(=O)c1csc2c1CCCCC2 (stereo not drawn),3.54%
23,CCOc1cc(C(=O)Nc2nc[nH]n2)cc(OCC)c1OCC,-10.2%
24,CC(=O)c1ccc2c(c1)c1ccccc1n2C(C)C,0.132%
25,CCc1ccc(CNC(=O)Cn2ncc3c(=O)oc4ccccc4c32)cc1,-2.83%
